This is one part of the list. Repeats are few or missing, and single values can be far off.
tested on: WM1716; experiment: cell count relative to DMSO control; melanoma cells; higher = more viable cells; conditions: library dose: low library concentration; 72 h
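Also: cell number obtained by counting DAPI-stained nuclei in high-throughput microscope images with image analysis software, screen run in 1,536-well plates.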

| Structure (SMILES) | cell count [%] |
| --- | --- |
| Cn1cc(C2=C(c3cn(C4CCN(Cc5ccccn5)CC4)c4ccccc34)C(=O)NC2=O)c2ccccc21 [Enzastaurin] + Cn1c(=O)n(-c2ccc(C(C)(C)C#N)cc2)c2c3cc(-c4cnc5ccccc5c4)ccc3ncc21 [NVP-BEZ235] (first compound 0.8 µM, partner dose 0.004 µM) | 129 |
| Cn1cc(C2=C(c3cn(C4CCN(Cc5ccccn5)CC4)c4ccccc34)C(=O)NC2=O)c2ccccc21 [Enzastaurin] + C=CCNC1=C2C[C@@H](C)C[C@H](OC)[C@H](O)[C@@H](C)/C=C(\C)[C@H](OC(N)=O)[C@@H](OC)/C=C\C=C(/C)C(=O)NC(=CC1=O)C2=O [Tanespimycin] (first compound 0.8 µM, partner dose 0.002 µM) | 101 |
| Cn1cc(C2=C(c3cn(C4CCN(Cc5ccccn5)CC4)c4ccccc34)C(=O)NC2=O)c2ccccc21 [Enzastaurin] + Cn1nnc2c(C(N)=O)ncn2c1=O [temozolomide] (first compound 0.8 µM, partner dose 2 µM) | 89.6 |
| C[C@]12O[C@H](C[C@]1(O)CO)n1c3ccccc3c3c4c(c5c6ccccc6n2c5c31)CNC4=O [Lestaurtinib] + CN(NC(=O)CC(=O)NN(C)C(=S)c1ccccc1)C(=S)c1ccccc1 [STA4783] (first compound 0.004 µM, partner dose 0.006 µM) | 91.7 |
| C[C@]12O[C@H](C[C@]1(O)CO)n1c3ccccc3c3c4c(c5c6ccccc6n2c5c31)CNC4=O [Lestaurtinib] + C[C@]1(O)C[C@@H](c2nc(-c3ccc4ccc(-c5ccccc5)nc4c3)c3c(N)nccn32)C1 [OSI906] (first compound 0.004 µM, partner dose 0.4 µM) | 99.8 |
| C[As](C)SC[C@H](NC(=O)CC[C@H](N)C(=O)O)C(=O)NCC(=O)O [Darinaparsin] + C/C(O)=C(\C#N)C(=O)Nc1cc(Br)ccc1Br [LFM-A13] (first compound 0.4 µM, partner dose 2 µM) | 91.4 |
| C[C@]12O[C@H](C[C@]1(O)CO)n1c3ccccc3c3c4c(c5c6ccccc6n2c5c31)CNC4=O [Lestaurtinib] + Nc1ccn([C@@H]2O[C@H](CO)[C@@H](O)C2(F)F)c(=O)n1 [gemcitabine] (first compound 0.004 µM, partner dose 0.0004 µM) | 106 |
| N.N.[Cl][Pt][Cl] [cisplatin] + C[As](C)SC[C@H](NC(=O)CC[C@H](N)C(=O)O)C(=O)NCC(=O)O [Darinaparsin] (first compound 1.6 µM, partner dose 0.4 µM) | 98 |
| Cn1cc(C2=C(c3cn(C4CCN(Cc5ccccn5)CC4)c4ccccc34)C(=O)NC2=O)c2ccccc21 [Enzastaurin] + O=C(Nc1cccc(Cl)c1)Nc1ncc(CCNc2ncnc3ccsc23)s1 [SNS314] (first compound 0.8 µM, partner dose 0.0008 µM) | 104 |
| N.N.[Cl][Pt][Cl] [cisplatin] + O=C(Nc1ccccc1)c1cc([N+](=O)[O-])ccc1Cl [GW9662] (first compound 1.6 µM, partner dose 2 µM) | 89.9 |
| Cn1cc(C2=C(c3cn(C4CCN(Cc5ccccn5)CC4)c4ccccc34)C(=O)NC2=O)c2ccccc21 [Enzastaurin] + Cn1cc(/C=C2\C(=O)Nc3cccnc32)c2ccccc21 [GW441756] (first compound 0.8 µM, partner dose 0.4 µM) | 112 |
| C[C@]12O[C@H](C[C@]1(O)CO)n1c3ccccc3c3c4c(c5c6ccccc6n2c5c31)CNC4=O [Lestaurtinib] + C=CCNC1=C2C[C@@H](C)C[C@H](OC)[C@H](O)[C@@H](C)/C=C(\C)[C@H](OC(N)=O)[C@@H](OC)/C=C\C=C(/C)C(=O)NC(=CC1=O)C2=O [Tanespimycin] (first compound 0.004 µM, partner dose 0.002 µM) | 120 |
| N.N.[Cl][Pt][Cl] [cisplatin] + C[C@@H]1CCN(C(=O)CC#N)C[C@@H]1N(C)c1ncnc2[nH]ccc12 [CP690550] (first compound 1.6 µM, partner dose 1 µM) | 85.4 |
| C[C@]12O[C@H](C[C@]1(O)CO)n1c3ccccc3c3c4c(c5c6ccccc6n2c5c31)CNC4=O [Lestaurtinib] + CCCS(=O)(=O)Nc1ccc(F)c(C(=O)c2c[nH]c3ncc(Cl)cc23)c1F [PLX4720] (first compound 0.004 µM, partner dose 0.08 µM) | 120 |

Reference: the supplement of paper PMC4604168 (melanoma cell lines)
